Data reported in paper PMC3981784 (PLoS ONE, 2014).

Assays:
[1] = system: A/PR/8/34 (H1N1); test: Hemagglutination inhibition assay with chicken red blood cells; details: Influenza A virus, Erythrocyte, read-out: EC50, inhibition of virus-induced hemagglutination
[2] = system: A/HK/8/68 (H3N2); test: as above; details: Influenza A virus, H3N2, Erythrocyte, read-out: EC50, inhibition of virus-induced hemagglutination
[3] = system: influenza viruses A/WSN/33(H1N1), A/PR/8/34(H1N1), and A/HK/8/68(H3N2); test: Plaque reduction assay on MDCK cells; assay type: cell-based, influenza A virus; details: virus pre-incubated with sample on ice 1 hour, three strains
[4] = system: A/WSN/33(H1N1), A/PR/8/34(H1N1), and A/HK/8/68(H3N2); test: Hemagglutination inhibition assays, result in words for the three virus subtypes (Fig. 1B)
[5] = system: recombinant HA of A/Puerto Rico/8/1934 (H1N1), A/California/04/2009 (H1N1), A/Netherlands/219/03 (H7N7), and A/Anhui/1/2005 (H5N1); details: HA incubated on ice 30 min with compound; four HA subtypes

Row | SMILES | EC50 [1] [nM] | EC50 [2] [nM] | effect on virus titers (viral infectivity) [3] | inhibition of virus-induced hemagglutination (in words) [4] | HA aggregation on native PAGE (HA polymer formation) [5]
1 | O=c1oc2c(O)c(O)cc3c(=O)oc4c(O)c(O)cc1c4c23 [EA, Ellagic acid] | 418 ± 370 | 781 | – | – | –
2 | O=C(O[C@@H]1Cc2c(O)cc(O)cc2O[C@@H]1c1cc(O)c(O)c(O)c1)c1cc(O)c(O)c(O)c1 [EGCG, (−)-epigallocatechin-3-gallate] | 307 ± 260 | 731 | – | – | –
3 | O=C(O)c1cc(O)c(O)c(O)c1 [GA, Gallic acid] | > 50000 | > 50000 | does not show inhibitory effect on virus titers | cannot inhibit virus-induced hemagglutination | –
4 | O=C(OC[C@H]1O[C@@H](OC(=O)c2cc(O)c(O)c(O)c2)[C@H](OC(=O)c2cc(O)c(O)c(O)c2)[C@@H](OC(=O)c2cc(O)c(O)c(O)c2)[C@@H]1OC(=O)c1cc(O)c(O)c(O)c1)c1cc(O)c(O)c(O)c1 [PGG, penta-galloyl-glucose] | 4 ± 4 | 202 ± 206 | significantly reduced the virus titers | – | concentration of HA polymer increases while the concentration of the incubated PGG increases
5 | O=C(OC[C@H]1O[C@@H](OC(=O)c2cc(O)c(O)c(O)c2)[C@H](OC(=O)c2cc(O)c(O)c(O)c2)[C@@H](OC(=O)c2cc(O)c(O)c(O)c2)[C@@H]1O)c1cc(O)c(O)c(O)c1 [TGG, 1,2,3,6-Tetra-O-galloyl-beta-D-glucose] | 1 ± 2 | 195 | significantly reduced the virus titers | – | –
